# “And” between values parts separate entries of the source, which are not always exact repeats. Equal entries are not always repeated. Inconclusive results, whose numbers are uncertain, are shown with a selection of clear calls. For part of these data: Potencies beside an inconclusive call are fits to weak or partial responses and may not hold up. The source made the active and inactive calls. Unless noted, calls come from the whole dose curve; as a rule, active = well fitted curve in the direction sought with a large enough effect in the repeat runs; inconclusive = weak or mixed curves; inactive = no such curve, though single readings can be large; an effect the other way counts as inactive or inconclusive.
# Columns and labels:
# [1] = target: Peroxisome proliferator-activated receptor gamma (Homo sapiens) (UniProt P37231); assay: qHTS assay to identify small molecule antagonists of the peroxisome proliferator-activated receptor gamma (PPARg) signaling pathway (AID 743191; calls by dose curve; note: nearly all actives have a fitted effect of over 30% in size; note: potency is the fitted concentration of half-maximal effect; for ratio activity, negative = inhibition: % is set by controls: 0 for no effect and ±100 for the full control effect); conditions: HEK293H PPARg-UAS-bla, beta-lactamase ratio, antagonist, 17 h; ratio activity, negative = inhibition: at 62.6 µM (top of the series) unless noted
# Chain of UniProt P37231 (P37231 whole entry, looked up): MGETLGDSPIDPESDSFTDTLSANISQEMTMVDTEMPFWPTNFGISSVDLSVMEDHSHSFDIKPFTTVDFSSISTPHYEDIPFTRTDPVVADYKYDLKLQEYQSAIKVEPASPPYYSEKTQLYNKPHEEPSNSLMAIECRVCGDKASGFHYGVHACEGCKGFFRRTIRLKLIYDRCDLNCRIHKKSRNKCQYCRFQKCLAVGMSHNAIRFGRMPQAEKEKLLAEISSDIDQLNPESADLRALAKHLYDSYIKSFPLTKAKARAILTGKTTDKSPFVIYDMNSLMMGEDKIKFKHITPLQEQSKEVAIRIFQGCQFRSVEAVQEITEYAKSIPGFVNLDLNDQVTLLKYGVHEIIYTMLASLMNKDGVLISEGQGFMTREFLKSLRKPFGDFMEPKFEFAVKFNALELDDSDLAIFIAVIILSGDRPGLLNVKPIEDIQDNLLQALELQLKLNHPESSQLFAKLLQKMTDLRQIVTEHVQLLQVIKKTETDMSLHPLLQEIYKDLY
# Procedure, shortened: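 Beta-lactamase reporter under UAS control in HEK293H PPARg-bla cells; compound treatment 17 h at 37C. Read-out: fluorescence intensity after 1 h room-temperature incubation with LiveBLAzer B/G FRET substrate.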
# [2] = qHTS assay for small molecule agonists of the antioxidant response element (ARE) signaling pathway (AID 743202; active = well fitted activation curve with a large enough effect in the signal ratio in the repeat runs, not every such curve was filed as active; inconclusive = weak or mixed curves, or effect the other way; inactive = no such curve, though single readings can be large or run the other way; the % refers to the signal ratio; note: potency is the fitted concentration of half-maximal effect); conditions: HepG2 ARE-bla reporter, beta-lactamase FRET, 16 h; activation: at 73.3 µM (top of the series) unless noted
# Procedure, shortened: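 An ARE-responsive beta-lactamase gene stably integrated in HepG2 cells serves as reporter. After 5 h plating and 16 h compound incubation at 37 C, fluorescence of the B/G FRET substrate was measured.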
# [3] = target: Vitamin D3 receptor (Homo sapiens) (UniProt P11473); assay: qHTS assay to identify small molecule antagonists of the vitamin D receptor (VDR) signaling pathway (AID 743223; active = well fitted inhibition curve with a large enough effect in the signal ratio in the repeat runs, not every such curve was filed as active; inconclusive = weak or mixed curves, or effect the other way; inactive = no such curve, though single readings can be large or run the other way; the % refers to the signal ratio; note: % is set by controls: 0 for no effect and ±100 for the full control effect); conditions: VDR-UAS-bla HEK293T, beta-lactamase FRET ratio, 16 h; activity change, negative = inhibition: at 61 µM (top of the series) unless noted
# Chain of UniProt P11473 (P11473 whole entry, looked up): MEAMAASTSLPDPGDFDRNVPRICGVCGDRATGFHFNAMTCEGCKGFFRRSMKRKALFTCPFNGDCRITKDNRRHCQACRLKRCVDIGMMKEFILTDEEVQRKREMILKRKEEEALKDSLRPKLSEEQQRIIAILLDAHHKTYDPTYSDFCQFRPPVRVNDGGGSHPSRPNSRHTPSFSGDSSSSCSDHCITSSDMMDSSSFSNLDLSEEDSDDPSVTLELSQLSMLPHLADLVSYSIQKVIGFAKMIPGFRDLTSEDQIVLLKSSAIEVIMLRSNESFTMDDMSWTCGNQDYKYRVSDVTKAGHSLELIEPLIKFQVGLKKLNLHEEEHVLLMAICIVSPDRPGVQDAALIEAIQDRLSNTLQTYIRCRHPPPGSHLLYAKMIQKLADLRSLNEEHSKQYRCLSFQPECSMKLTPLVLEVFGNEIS
# Procedure, shortened: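 Inhibition of agonist-driven VDR signalling is scored in VDR-bla cells: 3 nM final 1alpha,25-dihydroxyvitamin D3 plus compound, 16 h at 37C, then beta-lactamase detection by FRET substrate fluorescence after 2 h.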
# [4] = qHTS assay to identify small molecule agonists of the retinoic acid receptor (RAR) signaling pathway (AID 1159553); conditions: C3RL4 RARE luciferase reporter, agonist, 6 h; activation: at 73.3 µM (top of the series) unless noted; note: potency is the fitted concentration of half-maximal effect
# Procedure, shortened: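 Cell line C3RL4, RARE luciferase reporter. Treatment: compounds in DMSO, 6 hr, 37 C, 5% CO2, after overnight plating. Detection: luminescence, 30 min RT after reagent.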
# [5] = target: Estrogen receptor beta (Homo sapiens) (UniProt Q92731); assay: qHTS assay to identify small molecule antagonists of the estrogen receptor beta (ER-beta) signaling pathway (AID 1259378; active = well fitted inhibition curve with a large enough effect in the signal ratio in the repeat runs, not every such curve was filed as active; inconclusive = weak or mixed curves, or effect the other way; inactive = no such curve, though single readings can be large or run the other way; the % refers to the signal ratio; note: potency is the fitted concentration of half-maximal effect); conditions: ER-beta-UAS-bla HEK293T, beta-lactamase FRET ratio, 16 h; activity, negative = inhibition: at 92.4 µM (top of the series) unless noted
# Chain of UniProt Q92731 (Q92731 whole entry, looked up): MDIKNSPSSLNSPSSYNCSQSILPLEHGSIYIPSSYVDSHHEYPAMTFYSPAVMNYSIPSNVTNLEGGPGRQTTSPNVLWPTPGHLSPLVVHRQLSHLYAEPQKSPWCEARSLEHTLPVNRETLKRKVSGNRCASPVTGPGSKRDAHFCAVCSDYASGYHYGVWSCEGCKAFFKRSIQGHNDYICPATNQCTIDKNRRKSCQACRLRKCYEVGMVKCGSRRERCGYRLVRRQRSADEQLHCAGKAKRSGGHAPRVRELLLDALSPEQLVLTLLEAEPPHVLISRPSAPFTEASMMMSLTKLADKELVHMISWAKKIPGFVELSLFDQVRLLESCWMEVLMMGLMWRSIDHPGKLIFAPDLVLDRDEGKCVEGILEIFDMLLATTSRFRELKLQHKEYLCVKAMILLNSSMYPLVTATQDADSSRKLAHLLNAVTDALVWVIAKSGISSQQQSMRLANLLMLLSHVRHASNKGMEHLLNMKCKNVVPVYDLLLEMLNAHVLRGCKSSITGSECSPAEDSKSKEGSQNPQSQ
# Procedure, shortened: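 Antagonist mode: compounds added to beta-lactamase reporter HEK293T ER-beta-UAS cells stimulated with E2 (1nM final), 16 hr at 37C. LiveBLAzer B/G FRET substrate, 2 hours room temperature, fluorescence read-out.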
# [6] = target: Progesterone receptor (Homo sapiens) (UniProt P06401); assay: qHTS assay to identify small molecule antagonists of the progesterone receptor (PR) signaling pathway (AID 1346795; active = well fitted inhibition curve with a large enough effect in the signal ratio in the repeat runs, not every such curve was filed as active; inconclusive = weak or mixed curves; the % refers to the signal ratio; note: % is set by controls: 0 for no effect and ±100 for the full control effect); conditions: PR-UAS-bla HEK293T, beta-lactamase FRET ratio, 16 h; activity change, negative = inhibition: at 92.4 µM (top of the series) unless noted
# Chain of UniProt P06401 (P06401 whole entry, looked up): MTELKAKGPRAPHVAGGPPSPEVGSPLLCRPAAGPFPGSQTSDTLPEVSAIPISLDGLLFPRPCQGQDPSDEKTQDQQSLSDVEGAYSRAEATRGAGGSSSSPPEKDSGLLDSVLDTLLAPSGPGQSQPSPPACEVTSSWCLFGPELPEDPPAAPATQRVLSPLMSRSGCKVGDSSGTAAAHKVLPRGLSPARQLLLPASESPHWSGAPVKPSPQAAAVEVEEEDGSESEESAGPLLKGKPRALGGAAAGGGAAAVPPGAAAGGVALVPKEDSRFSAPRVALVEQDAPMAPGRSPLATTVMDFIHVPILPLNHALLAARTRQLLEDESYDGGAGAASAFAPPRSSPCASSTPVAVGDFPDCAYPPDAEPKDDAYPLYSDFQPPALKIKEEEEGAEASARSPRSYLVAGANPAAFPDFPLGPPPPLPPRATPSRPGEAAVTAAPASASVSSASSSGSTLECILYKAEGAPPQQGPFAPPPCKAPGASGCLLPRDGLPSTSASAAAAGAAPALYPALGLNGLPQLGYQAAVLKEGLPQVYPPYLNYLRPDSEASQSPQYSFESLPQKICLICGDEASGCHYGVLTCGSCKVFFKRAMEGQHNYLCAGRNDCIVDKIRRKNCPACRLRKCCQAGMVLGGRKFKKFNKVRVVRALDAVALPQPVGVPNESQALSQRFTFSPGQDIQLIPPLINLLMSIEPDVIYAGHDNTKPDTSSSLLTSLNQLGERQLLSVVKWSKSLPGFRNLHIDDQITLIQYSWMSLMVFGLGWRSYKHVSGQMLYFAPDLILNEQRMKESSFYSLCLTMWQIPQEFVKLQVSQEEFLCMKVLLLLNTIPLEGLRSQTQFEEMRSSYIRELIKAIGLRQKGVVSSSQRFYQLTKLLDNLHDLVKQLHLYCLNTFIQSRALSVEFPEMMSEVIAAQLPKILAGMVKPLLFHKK
# Procedure, shortened: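 Stimulus R5020 at 1 nM final; cells HEK293T PR-UAS-bla; medium with 2% charcoal-stripped FBS; compound exposure 16 hr at 37C, 5% CO2; detection by FRET beta-lactamase substrate, 2 hr, room temperature.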
# [7] = target: Cytochrome P450 2C19 (Homo sapiens) (UniProt P33261); assay: Cytochrome P450 Family 2 Subfamily C Member 19 (CYP2C19) small molecule antagonists: luciferase reporter qHTS assay (AID 1671197); note: nearly all actives have a fitted effect of over 65% in size; note: potency is the fitted concentration of half-maximal effect
# Chain of UniProt P33261 (P33261 whole entry, looked up): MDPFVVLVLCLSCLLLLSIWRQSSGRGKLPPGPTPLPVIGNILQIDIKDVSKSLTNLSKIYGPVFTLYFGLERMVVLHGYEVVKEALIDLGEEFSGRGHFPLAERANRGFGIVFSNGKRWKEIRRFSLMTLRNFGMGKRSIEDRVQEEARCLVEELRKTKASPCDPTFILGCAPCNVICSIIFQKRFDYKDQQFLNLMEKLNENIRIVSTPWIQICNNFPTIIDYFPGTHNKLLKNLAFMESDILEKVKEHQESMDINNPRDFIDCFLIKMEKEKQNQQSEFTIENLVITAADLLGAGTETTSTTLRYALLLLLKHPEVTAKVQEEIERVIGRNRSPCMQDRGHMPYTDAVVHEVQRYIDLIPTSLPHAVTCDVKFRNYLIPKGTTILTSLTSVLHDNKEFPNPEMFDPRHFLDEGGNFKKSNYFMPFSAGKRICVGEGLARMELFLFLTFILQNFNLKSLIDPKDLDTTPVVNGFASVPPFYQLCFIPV
# Procedure, shortened: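 CYP2C19 P450-Glo, 1536-well qHTS. Cpd + enzyme/proluciferin substrate 10 min RT; + NADPH regen, 37C 1 h; stop with luciferin detection reagent, 20 min RT, luminescence (RLU). Pos ctrl ketoconazole.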
# [8] = target: Cytochrome P450 2C9 (Homo sapiens) (UniProt P11712); assay: Cytochrome P450 Family 2 Subfamily C Member 9 (CYP2C9) small molecule antagonists: luciferase reporter qHTS assay (AID 1671198); note: potency is the fitted concentration of half-maximal effect; nearly all actives have a fitted effect of over 50% in size
# Procedure, shortened: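 Enzyme-substrate mix preincubated with compound 10 min at room temperature; reaction started with NADPH regeneration solution, 1 h 37C. Luminescent luciferin product read after 20 min detection reagent.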
# [9] = target: Cytochrome P450 1A2 (Homo sapiens) (UniProt P05177); assay: Cytochrome P450 Family 1 Subfamily A Member 2 (CYP1A2) small molecule antagonists: luciferase reporter qHTS assay (AID 1671199); note: nearly all actives have a fitted effect of over 50% in size; note: potency is the fitted concentration of half-maximal effect
# Chain of UniProt P05177 (P05177 whole entry, looked up): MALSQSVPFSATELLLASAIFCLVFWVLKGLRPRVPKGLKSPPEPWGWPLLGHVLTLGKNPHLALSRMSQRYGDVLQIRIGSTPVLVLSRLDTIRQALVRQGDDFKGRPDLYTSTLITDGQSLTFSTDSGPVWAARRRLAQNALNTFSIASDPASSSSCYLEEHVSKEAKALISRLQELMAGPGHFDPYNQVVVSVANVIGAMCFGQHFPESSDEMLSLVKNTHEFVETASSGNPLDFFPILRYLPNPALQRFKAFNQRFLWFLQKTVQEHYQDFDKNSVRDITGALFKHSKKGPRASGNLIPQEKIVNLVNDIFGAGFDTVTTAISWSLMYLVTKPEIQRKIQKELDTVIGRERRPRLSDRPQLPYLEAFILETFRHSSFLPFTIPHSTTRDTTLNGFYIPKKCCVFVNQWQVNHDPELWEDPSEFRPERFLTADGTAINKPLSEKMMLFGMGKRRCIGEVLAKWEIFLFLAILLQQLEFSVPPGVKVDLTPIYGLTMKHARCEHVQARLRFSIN
# Procedure, shortened: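 Signal from luciferin formed by CYP1A2 from a proluciferin substrate is read as luminescence, expressed in relative luminescence units. Compounds sit with enzyme 10 min, NADPH-driven reaction runs 1 h, all at room temperature.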
# [10] = qHTS assay for small molecule disruptors of the mitochondrial membrane potential (AID 720635); conditions: HepG2 mitochondrial membrane potential, Mito-MPS dye ratio; ratio activity, negative = MMP loss: at 83.2 µM (top of the series) unless noted; note: potency is the fitted concentration of half-maximal effect
# Procedure, shortened: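 Mitochondrial membrane potential tracked with Mito-MPS dye, red aggregates (ex 540/em 590 nm) against green monomers (ex 490/em 535 nm). Compound treatment 1 hr at 37C, dye 30 min in HepG2.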
# [11] = qHTS assay for identifying genotoxic compounds that show differential cytotoxicity against isogenic chicken DT40 cell lines with known DNA damage response pathways - Rev3 mutant cell line (AID 743014); conditions: chicken DT40 Rev3-/- viability, CellTiter-Glo, 40 h; activity, negative = cytotoxicity: at 68.4 µM (top of the series) unless noted; note: nearly all actives have a fitted effect of over 55% in size; note: potency is the fitted concentration of half-maximal effect
# [12] = qHTS assay to identify small molecule antagonists of the thyroid receptor (TR) signaling pathway - cell viability counter screen (AID 743064); conditions: GH3.TRE-Luc viability, CellTiter-Fluor, 24 h; activity change, negative = cytotoxic: at 70.3 µM (top of the series) unless noted; note: potency is the fitted concentration of half-maximal effect; nearly all actives have a fitted effect of over 50% in size
# Procedure, shortened: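 CellTiter-Fluor readout, 30 min at 37 °C/5% CO2, following 23.5 h incubation of GH3.TRE-Luc cells with test compound and 1 nM T3 (final).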
# [13] = qHTS assay to identify small molecule agonists of the progesterone receptor (PR) signaling pathway - cell viability counter screen (AID 1346799; calls by dose curve; note: nearly all actives have a fitted effect of over 45% in size; note: potency is the fitted concentration of half-maximal effect)
# Procedure, shortened: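 Multiplexed viability read: CellTiter-Glo luminescence, 30 min RT, following LiveBLAzer FRET measurement on PR-UAS-bla HEK293T cells exposed to compounds 16 hr.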
# [14] = qHTS assay for small molecule agonists of the p53 signaling pathway (AID 651631; calls by dose curve; note: % is set by controls: 0 for no effect and ±100 for the full control effect; nearly all actives have a fitted effect of over 15% in size); conditions: HCT-116 p53RE-bla reporter, beta-lactamase FRET ratio, 16 h; activation: at 73.3 µM (top of the series) unless noted
# Procedure, shortened: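 Beta-lactamase reporter activity under p53 response elements was quantified in HCT-116 cells by FRET fluorescence, following 16 h incubation with test compounds at 37 °C and 2 h substrate development at room temperature.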
# [15] = target: Glucocorticoid receptor (Homo sapiens) (UniProt P04150); assay: qHTS assay to identify small molecule antagonists of the glucocorticoid receptor (GR) signaling pathway (AID 720692; active = well fitted inhibition curve with a large enough effect in the signal ratio in the repeat runs, not every such curve was filed as active; inconclusive = weak or mixed curves, or effect the other way; inactive = no such curve, though single readings can be large or run the other way; the % refers to the signal ratio; note: % is set by controls: 0 for no effect and ±100 for the full control effect); conditions: GR-bla HeLa, beta-lactamase FRET ratio, dexamethasone-stimulated, 18 h; activity change, negative = inhibition: at 58.5 µM (top of the series) unless noted
# Chain of UniProt P04150 (P04150 whole entry, looked up): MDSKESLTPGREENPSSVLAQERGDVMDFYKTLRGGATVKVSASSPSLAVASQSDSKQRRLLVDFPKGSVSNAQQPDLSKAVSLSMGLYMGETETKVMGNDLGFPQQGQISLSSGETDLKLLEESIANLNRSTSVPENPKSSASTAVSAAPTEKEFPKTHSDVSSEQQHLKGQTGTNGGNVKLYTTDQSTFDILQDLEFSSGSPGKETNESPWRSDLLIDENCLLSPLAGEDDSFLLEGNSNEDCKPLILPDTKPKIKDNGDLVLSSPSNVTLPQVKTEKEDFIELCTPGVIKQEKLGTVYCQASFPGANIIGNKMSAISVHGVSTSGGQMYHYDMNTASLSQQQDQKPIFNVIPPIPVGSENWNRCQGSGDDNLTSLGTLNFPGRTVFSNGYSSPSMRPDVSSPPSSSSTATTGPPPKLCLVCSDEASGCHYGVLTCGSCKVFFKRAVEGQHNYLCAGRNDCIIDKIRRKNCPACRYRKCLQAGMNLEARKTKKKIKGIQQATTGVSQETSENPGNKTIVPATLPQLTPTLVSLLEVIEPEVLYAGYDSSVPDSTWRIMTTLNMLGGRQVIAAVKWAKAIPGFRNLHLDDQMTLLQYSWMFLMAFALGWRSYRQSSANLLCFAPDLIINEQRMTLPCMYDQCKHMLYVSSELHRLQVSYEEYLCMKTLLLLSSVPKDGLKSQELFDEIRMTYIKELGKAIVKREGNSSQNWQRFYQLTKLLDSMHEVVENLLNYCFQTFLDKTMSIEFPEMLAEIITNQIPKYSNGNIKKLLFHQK
# Procedure, shortened: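 Fluorescence from cleaved LiveBLAzer B/G FRET substrate reports GRE-driven beta-lactamase in HeLa cells; compounds are tested against 5 nM dexamethasone (final) over 18 h at 37 C, substrate incubation 2 h at room temperature.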
# [16] = target: Cytochrome P450 2D6 (Homo sapiens) (UniProt P10635); assay: Cytochrome P450 Family 2 Subfamily D Member 6 (CYP2D6) small molecule antagonists: luciferase reporter qHTS assay (AID 1671196); note: % is set by controls: 0 for no effect and ±100 for the full control effect; nearly all actives have a fitted effect of over 50% in size
# Procedure, shortened: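 Inhibition of CYP2D6 was gauged by loss of luminescence, since light produced tracks the luciferin generated from a proluciferin substrate. A 10 min room-temperature preincubation preceded 1 h NADPH-supported turnover.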
# [17] = qHTS assay for identifying genotoxic compounds that show differential cytotoxicity against isogenic chicken DT40 cell lines with known DNA damage response pathways - wild type cell line (AID 743012); conditions: DT40 wild type chicken cells viability, CellTiter-Glo, 40 h; activity change, negative = cytotoxicity: at 68.4 µM (top of the series) unless noted; note: potency is the fitted concentration of half-maximal effect; nearly all actives have a fitted effect of over 60% in size
# Procedure, shortened: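 Quantitative HTS on parental DT40 cells: 40 h compound treatment at 37 C/5% CO2, with viability then determined by CellTiter-Glo luminescence. Values serve as the DNA repair-proficient reference for differential cytotoxicity.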
# [18] = target: Estrogen receptor (Homo sapiens) (UniProt P03372); assay: qHTS assay to identify small molecule agonists of the estrogen receptor alpha (ER-alpha) signaling pathway using the BG1 cell line (AID 743079); conditions: BG1Luc4E2 cells, ERE-luciferase agonist, 22 h; activation: at 70.3 µM (top of the series) unless noted; note: nearly all actives have a fitted effect of over 20% in size; note: potency is the fitted concentration of half-maximal effect
# Chain of UniProt P03372 (P03372 whole entry, looked up): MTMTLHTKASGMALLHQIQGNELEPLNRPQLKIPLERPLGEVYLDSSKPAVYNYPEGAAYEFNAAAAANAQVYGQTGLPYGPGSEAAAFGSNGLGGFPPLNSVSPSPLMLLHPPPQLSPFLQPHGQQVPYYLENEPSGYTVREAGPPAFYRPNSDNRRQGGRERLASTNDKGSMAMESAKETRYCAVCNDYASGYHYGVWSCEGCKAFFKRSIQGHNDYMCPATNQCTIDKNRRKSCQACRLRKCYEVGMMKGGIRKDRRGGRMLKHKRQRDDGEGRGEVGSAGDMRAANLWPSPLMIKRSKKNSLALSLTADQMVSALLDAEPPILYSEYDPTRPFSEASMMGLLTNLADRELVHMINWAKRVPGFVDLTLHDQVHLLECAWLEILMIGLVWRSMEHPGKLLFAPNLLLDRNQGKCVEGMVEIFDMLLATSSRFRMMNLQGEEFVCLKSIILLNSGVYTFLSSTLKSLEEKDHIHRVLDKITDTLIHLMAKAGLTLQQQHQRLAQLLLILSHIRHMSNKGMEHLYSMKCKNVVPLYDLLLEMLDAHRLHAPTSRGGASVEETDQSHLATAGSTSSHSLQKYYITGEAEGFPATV
# [19] = qHTS assay to identify small molecule antagonists of the sonic hedgehog signaling (Shh) pathway (AID 1259369; calls by dose curve; note: nearly all actives have a fitted effect of over 45% in size; note: potency is the fitted concentration of half-maximal effect)
# Procedure, shortened: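 Screening used 3T3Gli1-Luc cells at 2,000 per well, compounds delivered in DMSO, and conditioned medium as agonist stimulus; plates incubated 24hr at 37 C and 5% CO2 before a 30min luciferase step.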
# Tags give direction and shape of the fitted curve or compound fluorescence and quenching.
smiles,measurement,setting,value
CCCCC(CC)CNC(=O)CC(C)OC(=O)CCC(=O)O (stereo not drawn),"ratio activity, negative = inhibition",[1],inconclusive: 0.38%
same,Potency,[2],inactive
same,Potency,[3],inactive
same,Potency,[4],active: 29.8 µM
same,"activity, negative = inhibition",[5],inconclusive: 7.01% [at 42.5 µM]
same,Potency,[6],inactive
same,Potency,[7],"inconclusive: 43.6 µM [inhibitor, single point]"
same,Potency,[8],"inconclusive: 30.9 µM [inhibitor, partial curve]"
Nc1ccc2cc(S(=O)(=O)O)cc(O)c2c1,activation,[2],inconclusive: -5.64%
same,Potency,[4],"inconclusive: 68.2 µM [inhibitor, partial curve, poor fit]"
same,Potency,[9],"inconclusive: 44.5 µM [inhibitor, partial curve]"
CC1(N)CCC(C(C)(C)N)CC1 (stereo not drawn),Potency,[10],inactive
same,Potency,[11],inactive
same,Potency,[12],"inconclusive: 54.5 µM [rising, single point]"
same,"ratio activity, negative = inhibition",[1],inconclusive: 1.51%
same,Potency,[4],inactive
same,Potency,[13],"inconclusive: 77 µM [cytotoxic, partial curve, poor fit]"
same,Potency,[7],inactive
same,Potency,[9],inactive
FC(F)(F)C(F)(F)C(F)(F)C(F)(F)C(F)(F)C(F)(F)C(F)(F)C(F)(F)Br,Potency,[14],inactive
same,Potency,[10],inactive
same,Potency,[15],inactive
same,"ratio activity, negative = inhibition",[1],inconclusive: 17.3%
same,Potency,[4],inactive
same,Potency,[6],inactive
same,Potency,[16],inactive
same,Potency,[9],inactive
O=S(=O)(O)SSS(=O)(=O)O,"ratio activity, negative = MMP loss",[10],inconclusive: 0.294%
same,Potency,[17],"inconclusive: 9.69 µM [rising, full curve, poor fit]"
same,"ratio activity, negative = inhibition",[1],inconclusive: 6.33%
same,activation,[2],inconclusive: 20.9%
same,Potency,[4],inactive
CC(=O)Nc1ccc(OCC(O)CNC(C)C)cc1 (stereo not drawn),"ratio activity, negative = MMP loss",[10],inconclusive: -9.85%
same,Potency,[11],"inconclusive: 29.8 µM [rising, partial curve, poor fit]"
same,Potency,[3],inactive
same,activation,[4],inconclusive: 3.39% [phenotype inactive]
same,Potency,[13],inactive
CC(=O)Nc1ccc(S(=O)(=O)Nc2ccc([N+](=O)[O-])cc2)cc1,Potency,[10],"inconclusive: 9.44 µM [inhibitor, partial curve]"
same,Potency,[15],inactive
same,Potency,[12],"inconclusive: 33.5 µM [cytotoxic, single point]"
same,Potency,[18],inactive
same,activation,[2],inconclusive: 20.9%
same,Potency,[4],"inconclusive: 26.6 µM [activator, partial curve, poor fit]"
same,Potency,[19],"inconclusive: 33.5 µM [inhibitor, single point]"
Cc1cnc(C(=O)NCCc2ccc(S(=O)(=O)NC(=O)NC3CCCCC3)cc2)cn1,"ratio activity, negative = MMP loss",[10],inconclusive: 18.6% and inconclusive: 47.4%
same,Potency,[15],inactive
same,Potency,[1],"inconclusive: 27.5 µM [rising, partial curve, poor fit]"
same,"ratio activity, negative = inhibition",[1],inconclusive: -8.08%
same,Potency,[2],inconclusive: 68.6 µM
same,activation,[2],inconclusive: 0.688%
same,activation,[4],inconclusive: -6.1% [phenotype inactive]
same,Potency,[19],inconclusive: 68.6 µM [inhibitor]
same,"activity, negative = inhibition",[5],inconclusive: 9.36% [at 42.5 µM]
CCCCCCCCCCCCCCCCO,"ratio activity, negative = MMP loss",[10],inconclusive: 2.52%
same,Potency,[17],"inconclusive: 68.6 µM [cytotoxic, single point]"
same,Potency,[12],"inconclusive: 21.1 µM [rising, partial curve, poor fit]"
same,Potency,[18],inactive
same,Potency,[3],inactive
same,activation,[4],inconclusive: 0.603% [phenotype inactive]
same,Potency,[6],inactive
Oc1ccccc1-c1nnco1,"ratio activity, negative = inhibition",[1],inconclusive: 16.5%
same,Potency,[2],inactive
same,Potency,[4],"inconclusive: 33.5 µM [activator, partial curve, poor fit]"
same,"activity, negative = inhibition",[5],inconclusive: 22.2% [at 42.5 µM]
CCS(=O)(=O)CCn1c([N+](=O)[O-])cnc1C,Potency,[14],inactive
same,Potency,[10],inactive
same,Potency,[18],active: 2.27 µM
same,"ratio activity, negative = inhibition",[1],inconclusive: 6.36%
same,Potency,[2],inactive
same,Potency,[4],inactive
C[N+](C)(C)CCCCCCCCCC[N+](C)(C)C,"ratio activity, negative = MMP loss",[10],inconclusive: -14.7%
same,Potency,[18],inactive
same,"ratio activity, negative = inhibition",[1],inconclusive: 7.01%
same,Potency,[2],inactive
same,Potency,[4],inactive
same,Potency,[19],inactive
same,Potency,[13],inactive
same,Potency,[9],"inconclusive: 27.5 µM [inhibitor, partial curve]"
NC(=O)c1ccc(N)cc1,Potency,[10],"inconclusive: 8.62 µM [activator, partial curve]"
same,Potency,[15],inactive
same,Potency,[18],"inconclusive: 38.5 µM [activator, partial curve, poor fit]"
same,Potency,[1],inactive
same,Potency,[2],inactive
same,Potency,[3],inactive
same,Potency,[4],inactive
COc1cc2c(cc1OC)C(=O)C(CC1CCN(Cc3ccccc3)CC1)C2 (stereo not drawn),activation,[14],inconclusive: 10.6%
same,Potency,[12],"inconclusive: 26.6 µM [cytotoxic, single point]"
same,Potency,[18],active: 26.6 µM
same,Potency,[1],"inconclusive: 10.6 µM [activator, partial curve]"
same,Potency,[2],"inconclusive: 7.5 µM [falling, partial curve, poor fit]"
same,Potency,[4],inactive
same,Potency,[19],"inconclusive: 33.5 µM [inhibitor, single point]"
same,Potency,[5],"inconclusive: 7.5 µM [activator, partial curve]"

# — PubChem BioAssay (Tox21)
